Data reported in the RNAGym collection of RNA variant scans (doi:10.1073/pnas.2313332121).
Variants at the background level are over-represented here.

B1: TPR 5TU (parent)
chain: GGAUCUUCUCGAUCUAACAAAAAAGACAAAUCUGCCACAAAGCUUGAGAGCAUCUUCGGAUGCAGAGGCGGCAGCCUUCGGUGGCGCGAUAGCGCCAACGUUCUCAACUAUGACACGCAAAACGCGUGCUCCGUUGAAUGGAGUUUAUCAUG

Variants of: B1
Test: polymerase ribozyme fitness, log enrichment relative to wild type (log ratio); higher = more active; in vitro selection for triplet polymerase activity
Method in brief: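 Each subunit of a heterodimeric triplet polymerase ribozyme was represented by a PCR-built, transcribed mutant library that underwent triplicate single-round in vitro selection with frozen incubation at −7 °C. Extended constructs were recovered by gel excision, streptavidin-bead capture and RT-PCR, and Illumina sequencing of input and output libraries kept genotypes with ≥10 input reads and ≥1 read per output. Fitness is the logarithm of genotype enrichment relative to wild-type enrichment, from inverse-variance-weighted replicate averages, with a logarithm base of 2.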

| Variant | polymerase ribozyme fitness (log ratio) |
| --- | --- |
| C76A G152A | -2.86 |
| U78A G80A C95U C108A C125U U146A | ≤ -4.2 |
| C76A G83A C103A | ≤ -4.2 |
| C76U G143A | -1.28 |
| U78C G92A | -3.78 |
| C75G U127A | ≤ -4.2 |
| C76A C85U G100C U104G A115U | ≤ -4.2 |
| C79U C85U A97U | ≤ -4.2 |
| C79A G83C G86U U102G A106C C114U C149A | ≤ -4.2 |
| C79A G83U U134G | ≤ -4.2 |
| C76U U82G G83A C105A U134C U146A U148G | ≤ -4.2 |
| U77A U90A G133U A142C | ≤ -4.2 |
| G80A G88U G94A G143C | ≤ -4.2 |
| U77A C85U G92C C99G U104C G140C | ≤ -4.2 |
| U77A G80C G141A | ≤ -4.2 |
| U78A U90C | ≤ -4.2 |
| C76U U144A | -1.08 |
| C76U C96U A97G C99U C103G | ≤ -4.2 |
| C79A G88A A113U | ≤ -4.2 |
| C75U A91G A147C | -3.68 |
| G80A C96G | -1.11 |
| U78C C87A | ≤ -4.2 |
| C76A G86C C87G C108A C114U | ≤ -4.2 |
| C76U U78A A107U G126A | ≤ -4.2 |

| Variant | polymerase ribozyme fitness (log ratio) |
| --- | --- |
| U77C G88U A147C U148A | ≤ -4.2 |
| C76G C103G U104G U135C | ≤ -4.2 |
| C79G C132A A142U | ≤ -4.2 |
| C79A G83C | ≤ -4.2 |
| C79U C96G A119G | ≤ -4.2 |
| C76A A137C U144A | ≤ -4.2 |
| G80A C99G U127C | -2.19 |
| C76G G94U C96G U111A | ≤ -4.2 |
| C79A U109C | ≤ -4.2 |
| U78A C85G | ≤ -4.2 |
| C76A A89C | -0.238 |
| C76G C87U C103U U109C A110G | ≤ -4.2 |
| C75G U90C C96G U127A | ≤ -4.2 |
| C76A A122U | 0.592 |
| C79A G143A U144G | ≤ -4.2 |
| C75U C79G G86A | ≤ -4.2 |
| U78G U90G G128U C131G | ≤ -4.2 |
| C76A A142G U146A | -1.52 |
| C76G U82A | ≤ -4.2 |
| U78G U109C G140C | ≤ -4.2 |
| C76G G83A U139A U146C U148C | ≤ -4.2 |
| C76G C85A | ≤ -4.2 |
| C76U G84A C85A C129U U134C | ≤ -4.2 |
| C76U C79A C93U C116A C118A | ≤ -4.2 |

| Variant | polymerase ribozyme fitness (log ratio) |
| --- | --- |
| C76U G84U U109C U130G G140A | ≤ -4.2 |
| U77C C87G G88A A121C G141A | ≤ -4.2 |
| U78A A122U U134A | ≤ -4.2 |
| U77A G88U | ≤ -4.2 |
| C79U C87G C93A G141U U146G G152A | ≤ -4.2 |
| C75U C87A | ≤ -4.2 |
| C79U U90A A137G | ≤ -4.2 |
| C76G C87G U90A A121C A122U | ≤ -4.2 |
| C75U G84U U101C | -1.45 |
| U77G C93U G117C | ≤ -4.2 |
| C76G C95U A97U U145G A150C | ≤ -4.2 |
| C75U A91U C118G A138U | ≤ -4.2 |
| C79A G84A | ≤ -4.2 |
| G80A G84U U127G | ≤ -4.2 |
| U77G A107U U144C U145C | ≤ -4.2 |
| C76G G80C C105U | ≤ -4.2 |
| U77G A98G C103A A121G C125A U134C G143C U144G | ≤ -4.2 |
| U78G C85U C125U | ≤ -4.2 |
| C75U G86C A115U | -2.41 |
| C79G C85A A138G U148A | ≤ -4.2 |
| C79G G84U C132U | ≤ -4.2 |
| U77G A138U | ≤ -4.2 |
| U77G G80A | ≤ -4.2 |
| U77G G84C U148G | ≤ -4.2 |

| Variant | polymerase ribozyme fitness (log ratio) |
| --- | --- |
| U78G C123G | ≤ -4.2 |
| C79A G80A C85G G100U U130A U145C U148G | ≤ -4.2 |
| U77C C85G C116U G143C | ≤ -4.2 |
| C79U A91C | -4.02 |
| C79U C87G U90G C95U | ≤ -4.2 |
| C79G G83U G84A C99A U127A C129U G136U | ≤ -4.2 |
| C79U C114G G140A | ≤ -4.2 |
| C76U C87G U101G | ≤ -4.2 |
| C76G U146G U148G | ≤ -4.2 |
| C76A C99A | -4.05 |
| C76U G88U | ≤ -4.2 |
| C76U C87G C125G | ≤ -4.2 |
| C76U G94A C99G G126C G141A | ≤ -4.2 |
| C75U G83A G88A U101C A120G G124A | ≤ -4.2 |
| C79A G88C C118A U139C A142U | ≤ -4.2 |
| C75U C87U C93G A119G C125U G141C | ≤ -4.2 |
| U77A C93U | ≤ -4.2 |
| U77G C93U G100U | ≤ -4.2 |
| C75U C99U | -2.07 |
| C76G A91C | ≤ -4.2 |
| C76A A121G | 0.0173 |
| U77G G94A G100A A106C G136C G140C | ≤ -4.2 |
| C76G A91U A106G U135A | ≤ -4.2 |
| C76A G128C | -3.67 |

| Variant | polymerase ribozyme fitness (log ratio) |
| --- | --- |
| C75U G80C A138C | ≤ -4.2 |
| C79A C96U U101G | ≤ -4.2 |
| U78G U111G A113U | ≤ -4.2 |
| U78C G83A G88C C93U A106U | ≤ -4.2 |
| U78A C93G G133A | ≤ -4.2 |
| G80A C93U U102A | -3.01 |
| U77C A110C C114U G124U | ≤ -4.2 |
| C76G U78C C93U C103G A137G | ≤ -4.2 |
| C75G U82G A91C | ≤ -4.2 |
| C79G G86A | ≤ -4.2 |
| U78G C79G G81U G92C A107U U111A A120C U135G G143C | ≤ -4.2 |
| C79A G88U C108G G136U | ≤ -4.2 |
| C76U U77C C93A | ≤ -4.2 |
| C76A G83U C131A | ≤ -4.2 |
| C76U C79U G83U G94A C105U C118G C132G G136A | ≤ -4.2 |
| U77A C93A A113C | ≤ -4.2 |
| U77C G136U C149G | -4.11 |
| C76G C93U | ≤ -4.2 |
| U77C C96A A113U A150C | ≤ -4.2 |
| C76U C85U A91U | ≤ -4.2 |
| C76G G128A | ≤ -4.2 |
| C76G G140U U151G | ≤ -4.2 |
| C79A C96G | ≤ -4.2 |
| U78G C93G | ≤ -4.2 |

| Variant | polymerase ribozyme fitness (log ratio) |
| --- | --- |
| U78G C93A | ≤ -4.2 |
| U77A C79G C108U C116U G140C U144A | ≤ -4.2 |
| G80A G84A | -0.264 |
| C76U C105G | -3.71 |
| C79U C85G C105G | ≤ -4.2 |
| C79G C105U G128U | ≤ -4.2 |
| C79A C87G | ≤ -4.2 |
| C76G C96A G140A | ≤ -4.2 |
| U77G C93U | ≤ -4.2 |
| C76A C93U C105G C131U | ≤ -4.2 |
| C76U G81A C99U | -0.44 |
| C75U C95U C96U | -0.218 |
| C76A C131G | -3.98 |
| C75U G86A C93U A110G | ≤ -4.2 |
| C75U G86A C87U G133A | ≤ -4.2 |
| C76U C93G C99U C114G U151C | ≤ -4.2 |
| C76G G88C | ≤ -4.2 |
| C76U | 0.0494 |
| C76G | ≤ -4.2 |
| C76A | -0.118 |
| C76U A115C | -0.614 |
| C76A G84A A91C A122U | ≤ -4.2 |
| U77A U78A C85G C93G C125U A137G | ≤ -4.2 |
| C79A G83U U135G G141C | ≤ -4.2 |

| Variant | polymerase ribozyme fitness (log ratio) |
| --- | --- |
| C76G G88A C93G G100U | ≤ -4.2 |
| C76U G94A | 1.11 |
| C75U A142C | -1.32 |
| C76A A89U G141U | -2.94 |
| U78C A120U G133U G141A | -3.21 |
| C76U C85G A147C | -0.612 |
| C76A A119U U135C C149G | ≤ -4.2 |
| C76U A137G | -0.882 |
| C76U C118A | -2.21 |
| C79A G84C C87U | ≤ -4.2 |
| C76G A120G | ≤ -4.2 |
| C76A G81A U82A C85U U127G A147U | ≤ -4.2 |
| G80A C87G A107G | ≤ -4.2 |
| C76A C95U A142G | -1.94 |
| C76U G83C C118U | -0.363 |
| G80A A89U C95U A120G | -1.11 |
| C76A C95U | 0.252 |
| C76A G88U G94U C132G U139C | ≤ -4.2 |
| U78G C79U G94C A115C G143A | ≤ -4.2 |
| C75U C96A G128U | -3.56 |
| C76U U82A A115U A147C | ≤ -4.2 |
| C76A C85A G143U | ≤ -4.2 |
| C79A G133A G140C C149U | ≤ -4.2 |
